Here are results for 86 sequences from the supplement of paper PMC3334620.

In all, about 33,000 sequences were measured (“E-score (-0.5 to 0.5)”: median about -0.035, highest 2% from about 0.35 on). The list shows a part of the results.

The target of the test is T1, Pdr3 (UniProt P33200).
T1 sequence: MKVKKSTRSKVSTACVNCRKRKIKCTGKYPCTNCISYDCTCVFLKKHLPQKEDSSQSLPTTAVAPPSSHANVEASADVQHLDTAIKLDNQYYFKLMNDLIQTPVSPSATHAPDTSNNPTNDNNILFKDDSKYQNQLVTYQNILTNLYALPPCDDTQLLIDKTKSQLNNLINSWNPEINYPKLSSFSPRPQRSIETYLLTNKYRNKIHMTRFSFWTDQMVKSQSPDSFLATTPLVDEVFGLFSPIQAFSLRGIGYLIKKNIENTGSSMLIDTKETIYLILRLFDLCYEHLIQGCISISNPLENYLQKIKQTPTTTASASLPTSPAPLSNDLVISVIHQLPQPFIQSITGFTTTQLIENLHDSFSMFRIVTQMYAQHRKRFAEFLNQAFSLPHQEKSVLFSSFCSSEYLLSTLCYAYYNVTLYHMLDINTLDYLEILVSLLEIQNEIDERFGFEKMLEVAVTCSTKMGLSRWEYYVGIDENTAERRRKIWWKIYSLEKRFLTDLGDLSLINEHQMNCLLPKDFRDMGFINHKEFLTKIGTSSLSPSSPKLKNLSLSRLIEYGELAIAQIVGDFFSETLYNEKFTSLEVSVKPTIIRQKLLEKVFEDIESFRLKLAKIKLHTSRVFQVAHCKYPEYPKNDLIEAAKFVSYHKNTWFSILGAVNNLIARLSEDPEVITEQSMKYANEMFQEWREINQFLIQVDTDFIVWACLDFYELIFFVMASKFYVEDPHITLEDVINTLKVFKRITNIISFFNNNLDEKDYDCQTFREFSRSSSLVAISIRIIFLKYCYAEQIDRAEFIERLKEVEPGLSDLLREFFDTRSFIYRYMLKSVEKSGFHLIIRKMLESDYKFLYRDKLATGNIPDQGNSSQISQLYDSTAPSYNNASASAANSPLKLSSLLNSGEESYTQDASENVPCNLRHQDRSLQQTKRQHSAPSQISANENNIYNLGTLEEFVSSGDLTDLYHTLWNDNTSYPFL
In words: PBM E-score (8-mer binding enrichment) (E-score (-0.5 to 0.5)); higher = stronger / more preferred TF binding; most listed sequences are background and not binding sites. The following applies: protein concentration: 200 nM; construct: GST-full length. Put shortly:
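Universal all-10-mer Agilent arrays, double-stranded by primer extension on fresh or once-stripped slides, were probed with about 100-200 nM GST-tagged yeast transcription factors made by PURExpress. Fluorescent anti-GST detected bound protein, and masliner normalised the scans. E-scores from the Universal PBM Analysis Suite were given to each ungapped eight-base word pooled with its reverse complement.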
Regarding CGGTAAAC, the “PBM E-score” value was -0.0178.

Take AAGGTGGA: the “PBM E-score” value is -0.0739.

As for AATGGCGC, the “PBM E-score” value was determined as 0.165.

As to ATCCTGAA, the “PBM E-score” value amounted to 0.0708.

AGACATCG: the “PBM E-score” value is -0.178.

In the case of CGATTACA, the “PBM E-score” value was -0.074.

Regarding ATGCCAAA, the “PBM E-score” value is -0.234.

Take AACTCGCG: the “PBM E-score” value stood at 0.118.

On to CTAATACC, for which the “PBM E-score” value came to 0.0346.

As for ATTAGTTG, the “PBM E-score” value is 0.0522.

In the case of GCCTACTA, the “PBM E-score” value was 0.009.

In the case of ACTAGTCC, the “PBM E-score” value turned out to be 0.0893.

For the sequence GGGTAAGA, the “PBM E-score” value is -0.0459.

TACCATCA: the “PBM E-score” value was -0.219.

Consider AGGGGACC, for which the “PBM E-score” value is -0.104.

Regarding CGCTTTGA, the “PBM E-score” value is -0.0624.

On to ATAATAAA, for which the “PBM E-score” value stood at 0.102.

Regarding TAGACTCA, the “PBM E-score” value is -0.0548.

As to ACTCGGTC, the “PBM E-score” value stood at 0.0175.

Regarding GCGCAAGC, the “PBM E-score” value was -0.0803.

Take ACGCTTAA: the “PBM E-score” value was -0.213.

Take ACACCAGC: the “PBM E-score” value was -0.156.

For CGAAGTTC, the “PBM E-score” value was determined as 0.111.

For AACTTGCC, the “PBM E-score” value was -0.0147.

On to AACCCGTG, for which the “PBM E-score” value was found to be 0.0393.

As to TCTAAGCA, the “PBM E-score” value is -0.193.

For the sequence AATAGTGG, the “PBM E-score” value is -0.0207.

As for AAAAATCT, the “PBM E-score” value is -0.0176.

Take GCAACCGA: the “PBM E-score” value was -0.0157.

Regarding GGATGTGA, the “PBM E-score” value is 0.0186.

Turning to CGGTCGGC, the “PBM E-score” value worked out at 0.104.

AGAGTTAA: the “PBM E-score” value is -0.244.

Take AACGAGGA: the “PBM E-score” value was determined as 0.0301.

Turning to GAACCCGC, the “PBM E-score” value turned out to be 0.169.

For GGAATTCC, the “PBM E-score” value is 0.299.

Turning to AGAGTCGG, the “PBM E-score” value is 0.0673.

In the case of TCTACGCA, the “PBM E-score” value was -0.211.

Consider GAACTCGA, for which the “PBM E-score” value turned out to be 0.137.

In the case of CACCAATG, the “PBM E-score” value was -0.0351.

As for AGAAAAGA, the “PBM E-score” value was -0.124.

As to CAGTTTAC, the “PBM E-score” value is -0.16.

As for AGTTTAGC, the “PBM E-score” value is -0.192.

In the case of AATGCACG, the “PBM E-score” value amounted to 0.116.

As for GACCTCGC, the “PBM E-score” value was determined as 0.0162.

Take GAAGACAC: the “PBM E-score” value was determined as 0.037.

CCGATGGA: the “PBM E-score” value stood at 0.129.

With CGTTTAAA, the “PBM E-score” value was -0.0772.

In the case of AAGTCACG, the “PBM E-score” value was found to be 0.0265.

Turning to ATAATCCC, the “PBM E-score” value came to 0.196.

Consider CAAAATCC, for which the “PBM E-score” value was 0.12.

On to ATAACCAA, for which the “PBM E-score” value was -0.0632.

Regarding AGCCACAA, the “PBM E-score” value was -0.0241.

As for ACAAGACA, the “PBM E-score” value came out at 0.0901.

For ACCGATAC, the “PBM E-score” value was found to be 0.00062.

Take AGGGGCAG: the “PBM E-score” value was -0.0868.

On to AAAAGCAA, for which the “PBM E-score” value is -0.0203.

Regarding ATCCCGAC, the “PBM E-score” value was 0.331.

Turning to ATTGGTAG, the “PBM E-score” value was -0.142.

As to GCCGTAGA, the “PBM E-score” value was 0.161.

With GGTAAGTA, the “PBM E-score” value was -0.0804.

As for ATGCGTTA, the “PBM E-score” value was -0.0252.

Regarding CGTAGTAG, the “PBM E-score” value was -0.055.

For ATACGGAG, the “PBM E-score” value came out at 0.242.

As to ATTTCGAG, the “PBM E-score” value was -0.0365.

Turning to AATAGCAA, the “PBM E-score” value was -0.049.

In the case of GAATCGCA, the “PBM E-score” value was -0.00329.

Turning to CGTAGCGC, the “PBM E-score” value was -0.214.

On to GCTTCTTA, for which the “PBM E-score” value amounted to 0.0605.

As to ATCGTTAG, the “PBM E-score” value is -0.0972.

Regarding AATCGAGA, the “PBM E-score” value was found to be 0.008.

On to AACCTGCT, for which the “PBM E-score” value came to 0.0169.

Take CCGCGCTC: the “PBM E-score” value came to 0.244.

On to CATTTACG, for which the “PBM E-score” value was found to be 0.0492.

On to GGTCTTTA, for which the “PBM E-score” value is -0.0612.

For ATGCGAAC, the “PBM E-score” value is 0.0308.

Regarding TGAAGCAA, the “PBM E-score” value is -0.204.

In the case of CCTGACTA, the “PBM E-score” value is -0.0041.

With ATAATCTC, the “PBM E-score” value is 0.0241.

For the sequence GTTTGTCA, the “PBM E-score” value is -0.0177.

In the case of ATGCCTAC, the “PBM E-score” value was -0.168.

With AGAATTAG, the “PBM E-score” value is -0.172.

As for AAATAAAG, the “PBM E-score” value is -0.0755.

With TCACTAAA, the “PBM E-score” value was -0.0987.

For the sequence CGACTAAA, the “PBM E-score” value is -0.0874.

As to AGCACAGG, the “PBM E-score” value is -0.109.

Turning to ATCACGAA, the “PBM E-score” value is -0.0534.
